Source: article PMC12040169 (PLOS Biology, 2025)
The other results are listed elsewhere or left out.

tested on: T1, C. trachomatis L2/434/Bu expressing GFP (CTL2-GFP); set-up: species or system HeLa; C. trachomatis total inclusion area by high-content imaging, normalised to DMSO; details: total inclusion area; 28.5 h, 10 µM; inhibitor
T1 construct: L2/434/Bu GFP intracellular growth in HeLa cells
Method in brief: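 High-content imaging followed the bulk GFP/resorufin measurement: fixed, Hoechst-stained cells were scored for GFP inclusions and host nuclei per well. Total inclusion area and count served as growth proxies, nuclei number as the viability proxy. MIC calculation matched the bulk assay.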

Structure (SMILES)	% of control remaining
COC(=O)c1nc(Cl)c(Cl)nc1NS(=O)(=O)c1cccc(Cl)c1C [CBK004709]	86.5417
O=c1[nH]c2ncc(-c3ccccc3)nc2n1CCCN1CCOCC1 [CBK064805]	91.1072
Cn1c(COc2cncc(Cl)n2)cc2ccccc21 [CBK176002]	62.8764
O=C1NC2=C(C(=O)N(CCN3CCCC3)C2)C(c2ccccc2)N1 (centres unmarked) [CBK283493]	80.4869
c1ccc(Nc2nccc(C3CCCN(Cc4ccc5[nH]ccc5c4)C3)n2)nc1 (centres unmarked) [CBK286093]	104.106
COc1ccccc1C(=O)Nc1nc2ccc(NC(C)=O)cc2s1 [CBK287303]	104.984
CN1CCC(=NNC(=O)c2ccc(N(Cc3ccccc3)S(C)(=O)=O)cc2)CC1 [CBK262742]	111.155
Cn1c(SCC(=O)Nc2ccc(Oc3ccc(Cl)cc3)cc2)nnc1-c1ccncc1 [CBK269654]	73.805
c1cnc(NCc2cc3n(n2)CCN(CC2CCCCO2)C3)cn1 (centres unmarked) [CBK306891]	88.1154
O=C(Nc1[nH]nc(O)c1Cc1c(Cl)cccc1Cl)C1CCCCC1 [CBK084558]	108.489
Nc1nc2c(cnn2[C@H]2C[C@@H](O)[C@@H](CO)O2)c(=O)[nH]1 [CBK201223]	123.504
C=CCc1c(O)nc(SCC(=O)N2CCOCC2)[nH]c1=O [CBK073301]	102.604
Cc1ccc(N(CC(=O)N/N=C/c2ccccc2)S(=O)(=O)c2ccccc2)cc1 [CBK262090]	98.1645
Cc1cc(C(F)(F)F)nn1CC(=O)Nc1sc2c(c1C#N)CCC(C)C2 (centres unmarked) [CBK304619]	55.2793
Cc1csc(Sc2nccnc2NC(C)C)n1 [CBK115203]	108.658
c1ccc(Oc2ccc(Nc3cccc(-c4ccc(N5CCOCC5)cc4)n3)cc2)cc1 [CBK036986]	129.751
CCNC(=O)N1CC2(CCN(CCS(=O)(=O)c3ccccc3)CC2)c2ccccc21 [CBK126698]	92.0846
COc1ccc(Cn2ncnc2CC2CCNCC2)cc1 [CBK307071]	69.2549
CC(=O)Nc1cccc(-c2cncc(N[C@H](CO)C(C)C)n2)c1 [CBK065475]	113.634
O=C(c1ccc2ccccc2n1)N1CCC(Cc2ccccc2)CC1 [CBK200184]	91.3673
c1ccc(-c2noc(CN3CCN(C(c4ccccc4)c4ccccc4)CC3)n2)cc1 [CBK265844]	129.596

Structure (SMILES)	% of control remaining
O=C(Cc1ccccc1Cl)NCc1nnc(-c2cccs2)o1 [CBK284643]	81.9074
Cc1nn(S(=O)(=O)c2cccc3nsnc23)c(C)c1Cl [CBK270323]	98.5421
CCN(CCO)c1ccc(Nc2cc(-c3cc4ccccc4o3)ncn2)cc1 [CBK090999]	115.475
Cc1ccsc1CN(C)C(=O)NC1CCCc2c1cnn2CCO (centres unmarked) [CBK306349]	56.3033
O=C(CC1CCCC1)NCCn1nc(-c2cccs2)oc1=O [CBK282386]	93.3274
O=[N+]([O-])c1cc(F)ccc1Oc1cccc(Cl)c1Cl [CBK002604]	124.055
CN1CCCN(c2cncc(-c3cccnc3)n2)CC1 [CBK037215]	86.7558
CN(CC(=O)NNC(=O)c1cccs1)S(=O)(=O)c1ccc2ccccc2c1 [CBK267409]	95.2887
O=S(=O)(Nc1nc(CCNCCO)cs1)c1ccc(Oc2ccccc2)cc1 [CBK034632]	102.369
c1coc(-c2cc(Nc3ccc4[nH]ccc4c3)ncn2)c1 [CBK090862]	85.2549
O=S(=O)(Nc1nccnc1N1CCN(c2ccccc2)CC1)c1ccc(F)cc1 [CBK048706]	94.9471
CCOC(=O)c1cccnc1-c1cccc(C(N)=O)c1 [CBK149239]	100.962
COC(=O)CC1(C)C(=O)CCC2(C)C1=CCc1ccccc12 (centres unmarked) [CBK006547]	105.182
COc1cc(CNC2CCCc3c2cnn3C)cc(OC)c1 (centres unmarked) [CBK304306C]	94.7018
Cc1ccncc1C(=O)NCc1ccccc1 [CBK200193]	75.4768
CC(C)Nc1nc2ccccc2nc1OCCC#N [CBK115735]	97.6338
COc1cccc(NC(=O)CC(CN2CCN(Cc3ccccn3)CC2)C(=O)O)c1 (centres unmarked) [CBK286735]	106.848
Nc1ncc(-c2ccc(C(=O)N3CCOCC3)cc2)nc1-c1cccnc1 [CBK126356]	105.328
COc1ccc(C(=O)NC(N2CCCCC2)C(Cl)(Cl)Cl)cc1 (centres unmarked) [CBK087021]	102.33
COc1ccc(S(=O)(=O)N2CCOCC2)cc1C(=O)Nc1ccc2c(c1)OCO2 [CBK265548]	105.215
